# Assay results taken from PubChem BioAssay AID2100 (National Center for Advancing Translational Sciences (NCATS), 2009).
# The whole screen tested about 300,000 compounds, of which about 1,200 (0.4%) were called active. The inconclusive results got no clear call from the source; some entries with a clear call stand among them for comparison. The call rests on the fitted dose curve; in most records, active means well fitted inhibition curve with a large enough effect; inconclusive means small, poorly fitted or top-dose-only effect, or another doubt; inactive means no such curve, though single readings can be large or run the other way. Potencies of inconclusive entries are doubtful fits and often do not repeat.
# Target: Lysosomal alpha-glucosidase (Homo sapiens) (UniProt P10253)
# Assay: qHTS Assay for Inhibitors and Activators of Human alpha-Glucosidase Cleavage of Glycogen
# Conditions: recombinant GAA, glycogen substrate, Amplex Red glucose oxidase fluorescence; series mostly up to 76.4 µM
# Outline: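 Natural-substrate format: glycogen cleavage by 4 nM human enzyme, glucose read by Amplex Red coupling (Ex 573, Em 610 nm). Normalized to enzyme and no-enzyme controls.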
# Potency means the concentration at half of the fitted maximal effect.
row,Structure (SMILES),Potency
1,CCOC(=O)c1sc2nc3n(c(=O)c2c1C)CCC(C)CC3 (stereo unspecified),inactive
2,COc1ccc(C2NC3=C(CCCC3)C(C#N)(C#N)C2(C#N)C#N)cc1 (stereo unspecified),inactive
3,CCc1ccc2oc(C(=O)NCC(c3ccc(Cl)cc3)N3CCOCC3)c(C)c2c1 (stereo unspecified),inactive
4,CCOC(=O)c1c(NC(=S)Nc2ccc(OC)cc2)sc2c1CCC2,"inconclusive: 39.8 µM [inhibitor, partial curve]"
5,COc1cc(C#CC#CCN2CCCCC2)ccc1O,"inconclusive: 39.8 µM [inhibitor, partial curve]"
6,Cc1sc2nc(CN3CCOCC3)[nH]c(=S)c2c1C,"inconclusive: 50.1 µM [inhibitor, single point]"
7,O=C(Nc1ccc2c(c1)OCO2)c1cc(-c2cccc(Cl)c2)on1,"inconclusive: 31.6 µM [inhibitor, partial curve]"
8,CCc1cc(C(=O)NNC(=S)NCc2ccccc2)cs1,"inconclusive: 24.9 µM [inhibitor, single point]"
9,CCn1c(SCC(=O)N/N=C/C=C/c2ccco2)nnc1-c1ccc(OC)cc1,inactive
10,O=C(CSc1nc2[nH]ncc2c(=O)n1-c1ccccc1)N1CCCc2ccccc21,"inconclusive: 17.6 µM [inhibitor, partial curve]"
11,CC(C)Cn1c(N)c(C(=O)NCC2CCCO2)c2nc3ccccc3nc21 (stereo unspecified),inactive
12,CCCNC(=O)C/C(C)=N/NC(=O)C(=O)Nc1ccccn1,"inconclusive: 22.4 µM [inhibitor, partial curve]"
13,CC(C)NC1=C(Cl)C(=O)c2ccccc2C1=O,inactive
14,COc1ccc(/C=C\C(=O)NCc2ccc3c(c2)cc(C)n3C)cc1OC,"inconclusive: 50.1 µM [activator, single point]"
15,COc1ccc(Nc2nc(C(=O)N3CCc4cc(OC)c(OC)cc4C3)cs2)cc1,"inconclusive: 25.1 µM [inhibitor, partial curve]"
16,CC(C)C1=Nc2cccc3cccc(c23)N1,active: 24.9 µM
17,CCOc1ccc(Nc2nc(Cc3nnc(SCC(=O)N(CC)CC)n3C)cs2)cc1,"inconclusive: 50.1 µM [inhibitor, single point]"
18,CC(=O)Nc1ccc(S(=O)(=O)NNC(=O)c2ccc([N+](=O)[O-])cc2)cc1,"inconclusive: 35.5 µM [inhibitor, single point]"
19,CC(C)CCNC(=O)C(c1ccncc1)N(Cc1cccs1)C(=O)Cn1nnc(-c2ccc(F)cc2)n1 (stereo unspecified),"inconclusive: 22.4 µM [inhibitor, partial curve]"
20,COc1ccc(-n2c(-c3ccccc3F)nc3c(cnn3-c3ccc(C)cc3)c2=O)cc1,inactive
21,Cc1ccc2c(Sc3ccccc3)c(C(=O)NCc3ccccc3F)[nH]c2c1,inactive
22,O=C1CCCN1CCCNC(=S)Nc1ccc(Nc2ccccc2)cc1,"inconclusive: 3.98 µM [inhibitor, partial curve]"
23,CC(C)(C)NC(=O)NC(=O)CN1CCN(c2ccccc2O)CC1,"inconclusive: 4.47 µM [inhibitor, full curve]"
24,COc1ccc(C(=O)Nc2ccc(NC(=O)c3cccs3)cn2)cc1,inactive

row,Structure (SMILES),Potency
1,COc1ccc(C=Nc2cccnc2N)cc1,"inconclusive: 50.1 µM [activator, single point]"
2,O=c1c(OC2OC(CO)C(O)C(O)C2OC2OC(CO)C(O)C(O)C2OC2OC(CO)C(O)C(O)C2O)c(-c2ccc(O)c(O)c2)oc2cc(O)cc(O)c12 (stereo unspecified),"inconclusive: 31.6 µM [inhibitor, partial curve]"
3,CCOc1ccc(C2CC(=O)c3c([nH]c(C(=O)OCc4ccccc4)c3C)C2)cc1 (stereo unspecified),inactive
4,CN1C(=O)C(=O)/C(=C(/O)c2ccc(Br)cc2)C1c1ccc(Cl)cc1 (stereo unspecified),inactive
5,Oc1ccc(NC(=S)Nc2ccc(F)cc2)cc1,active: 11.2 µM
6,CCCc1cc(-c2n[nH]c(=S)n2CC(C)C)cs1,"inconclusive: 28.2 µM [inhibitor, partial curve]"
7,COc1ccc(C(CNC(=O)Nc2ccccc2)N2CCN(C)CC2)cc1 (stereo unspecified),inactive
8,Oc1ccc(/C=N/N(Cc2ccccc2)c2ccccc2)c(O)c1O,"inconclusive: 9.92 µM [inhibitor, partial curve]"
9,CC1=NN(c2ccc(F)cc2)C(=O)C1C(c1cccc(O)c1)c1c(C)[nH]n(-c2ccc(F)cc2)c1=O (stereo unspecified),"inconclusive: 22.2 µM [inhibitor, partial curve]"
10,Cc1ccc(C)c(Nc2nc(-c3cccnc3)cs2)c1,"inconclusive: 20 µM [inhibitor, partial curve]"
11,O=C(CCN1CCOCC1)NNC(=S)NC(=O)c1ccccc1,"inconclusive: 3.98 µM [inhibitor, full curve]"
12,COc1cc(C(c2c(C(=O)O)[nH]c3ccccc23)c2c(C(=O)O)[nH]c3ccccc23)ccc1OCc1ccccc1,"inconclusive: 31.6 µM [inhibitor, partial curve]"
13,O=C(COc1ccccc1O)NNc1ccccc1,"inconclusive: 6.31 µM [inhibitor, full curve]"
14,Cc1nc2ncccn2c1-c1csc(Nc2cccc(C(=O)O)c2)n1,"inconclusive: 50.1 µM [inhibitor, single point]"
15,COc1cc(C(=O)NNC(=S)Nc2ccc(S(N)(=O)=O)cc2)cc(OC)c1OC,"inconclusive: 12.5 µM [inhibitor, partial curve]"
16,Cc1ccc(Nc2c(-c3ccncc3)nc3ccc(C)cn23)cc1,"inconclusive: 14.1 µM [inhibitor, partial curve]"
17,Nc1n[nH]c(N)c1N=Nc1ccc(Cl)cc1Cl,"inconclusive: 28.2 µM [inhibitor, partial curve]"
18,CN(C)Cc1c(C(=O)N/N=C/CCc2ccccc2)nnn1-c1nonc1N,"inconclusive: 50.1 µM [inhibitor, single point]"
19,CCCCCC(=O)NNC(=S)NC(=O)c1cccc([N+](=O)[O-])c1,"inconclusive: 35.5 µM [inhibitor, single point]"
20,CC(Oc1ccc2c(c1)oc(=O)c1ccccc12)C(=O)NC(Cc1c[nH]c2ccc(O)cc12)C(=O)O (stereo unspecified),"inconclusive: 6.31 µM [inhibitor, full curve]"
21,O=C(N/N=C/c1ccc(O)cc1)c1cc[n+](Cc2ccccc2)cc1,"inconclusive: 25.1 µM [inhibitor, partial curve]"
22,Cc1[nH]nc(SCC(=O)Nc2cccc(O)c2)c1[N+](=O)[O-],inactive
23,CC(C)(C)n1cnc2cc(NCc3ccccc3O)ccc21,"inconclusive: 28.2 µM [inhibitor, single point]"
24,CC(=O)NNc1cc(=O)c2c(=O)n(C)c(=O)n(C)c2[nH]1,"inconclusive: 22.4 µM [inhibitor, partial curve]"

row,Structure (SMILES),Potency
1,Cn1c(Cn2cnc(Cl)c2Cl)nc2ccccc21,inactive
2,COc1cccc(CNCCO)c1OCc1ccc(Cl)cc1,inactive
3,Cc1ccc(-c2cc(C(=O)N3CCN(c4ccc(F)cc4)CC3)c3ccccc3n2)o1,inactive
4,O=C(NNS(=O)(=O)c1ccccc1)c1cccc([N+](=O)[O-])c1,"inconclusive: 22.4 µM [inhibitor, partial curve]"
5,COc1ccc(/C=N/NC(N)=S)cc1OC(=O)c1cccc2ccccc12,"inconclusive: 28.2 µM [inhibitor, single point]"
6,CC1C(=O)NN=C1C(=O)N/N=C/c1ccco1 (stereo unspecified),"inconclusive: 14.1 µM [inhibitor, partial curve]"
7,CCOc1cc(C2NC(=S)NC(C)=C2C(=O)Nc2ccccc2)ccc1O (stereo unspecified),"inconclusive: 20 µM [inhibitor, partial curve]"
8,O=C(Nc1cccc(-c2csc(Nc3ccc(Cl)cc3)n2)c1)c1ccccc1,"inconclusive: 39.5 µM [inhibitor, single point]"
9,N#Cc1nc(/C=C/c2ccccc2)oc1NCCCN1CCOCC1,"inconclusive: 22.4 µM [inhibitor, single point]"
10,O=C(NC(=S)NNS(=O)(=O)c1ccccc1)c1ccccc1[N+](=O)[O-],"inconclusive: 14.1 µM [inhibitor, partial curve]"
11,COc1cccc(CNC(=O)CCNS(=O)(=O)c2cccc3nsnc23)c1,"inconclusive: 31.6 µM [inhibitor, single point]"
12,COc1cc(/C=N/NC(=O)CCc2n[nH]c(=O)[nH]c2=O)ccc1O,"inconclusive: 35.5 µM [inhibitor, partial curve]"
13,NC(=S)N/N=C/c1ccc(Br)o1,"inconclusive: 17.8 µM [inhibitor, partial curve]"
14,CC(=O)Oc1c(C)cc(O)c2ccccc12,active: 14 µM
15,CCOC(=O)C(OC(=O)c1sc(=S)n(C)c1C)C(C)=O (stereo unspecified),"inconclusive: 15.7 µM [inhibitor, partial curve]"
16,Cc1cc(Nc2ccc(Cl)cc2)n(-c2ccccc2)n1,"inconclusive: 10 µM [inhibitor, partial curve]"
17,O=S(=O)(Nc1nc2ccccc2nc1NCc1ccco1)c1ccccc1,inactive
18,CSc1nnc(-c2cccc(NC(=S)NN)c2)o1,"inconclusive: 39.5 µM [inhibitor, single point]"
19,Fc1ccc2c(c1)/C(=N/Nc1ccccn1)CCS2,"inconclusive: 35.5 µM [inhibitor, partial curve]"
20,O=C1Nc2ccccc2N2CCCC12 (stereo unspecified),"inconclusive: 39.5 µM [inhibitor, partial curve]"
21,CN(C(=O)c1nn(C)c2c1COc1ccccc1-2)c1cccc(C(F)(F)F)c1,inactive
22,O=C(N/N=C/c1cn(-c2ccccc2)nc1-c1ccc(F)cc1)c1ccc2c(c1)OCO2,inactive
23,COCCNC(=O)c1c(NC(=O)Cc2coc3cc(C)ccc23)sc2c1CCCC2,inactive
